# This is one part of the list.
# B1: MIC1 (Neospora caninum), Q8WRS0 (protein)
# chain: AGAKTYGEASQPSASARSLQGALDTWCQEVFKKLCDDGYSKMCIPANQVVARQGLGRKDQQKLVWRCYDSAAFLAEGDENNVLSCVDDCGVSIPCPGGVDRDNSTHATRHDELSQLIKEGVVRYCSGFQAAANSYCNKRYPGTVARKSKGFGHKEPVKWRCYKPESLLFSVFSECVSNCGTTWSCPGGRLGTATNLDKKHFTDESGILQALTSVPKACPVGLVCLPRDQNPPACLDDNGNVPE
# What was measured:
# Assay in all cases: glycan array binding signal (z-score within array); higher = stronger binding
# Conditions in all cases: glycan notation: IUPAC condensed, linker removed
# [1] = molecular target: Fuc(a1-3)[Gal(b1-4)]GlcNAc(b1-3)Gal(b1-4)Glc
# Summary of the method: (§1)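 The binding signal is a Z-score computed within each array and averaged over linkers. Arrays of the same protein sequence at different concentrations or buffers were also averaged together. Data originate from 3228 arrays in the Consortium for Functional Glycomics database, kept only where the protein sequence was available.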
# [2] = molecular target: Gal(b1-3)GalNAc(b1-4)[Neu5Ac(a2-3)]Gal(b1-4)Glc
# Summary of the method: as §1
# [3] = molecular target: Gal(b1-3)GalNAc(b1-4)[Neu5Gc(a2-3)]Gal(b1-4)Glc
# Summary of the method: as §1
# [4] = molecular target: Gal(b1-3)GlcNAc(b1-3)Gal(b1-4)Glc
# Summary of the method: as §1
# [5] = molecular target: Gal(b1-3)GlcNAc(b1-3)[Gal(b1-4)GlcNAc(b1-6)]Gal(b1-4)Glc
# Summary of the method: as §1
# [6] = molecular target: Gal(b1-3)[Neu5Ac(a2-6)]GlcNAc(b1-3)Gal(b1-4)Glc
# Summary of the method: as §1
# Gal(b1-4)GlcNAc = molecular target: Gal(b1-4)GlcNAc
# Summary of the method: as §1
# [7] = molecular target: Gal(b1-4)GlcNAc(b1-2)Man(a1-3)[Gal(b1-4)GlcNAc(b1-2)Man(a1-6)]Man(b1-4)GlcNAc(b1-4)GlcNAc
# Summary of the method: as §1
# [8] = molecular target: Gal(b1-4)GlcNAc(b1-3)Gal(b1-4)Glc
# Summary of the method: as §1
# Neu(a2-3)Gal(b1-4)Glc = molecular target: Neu(a2-3)Gal(b1-4)Glc
# Summary of the method: as §1
# [9] = molecular target: Neu(a2-3)Gal(b1-4)GlcNAc(b1-3)Gal(b1-4)[Fuc(a1-3)]GlcNAc(b1-3)Gal(b1-4)Glc
# Summary of the method: as §1
# [10] = molecular target: Neu(a2-3)Gal(b1-4)GlcNAc6S(b1-3)Gal(b1-4)Glc
# Summary of the method: as §1
# [11] = molecular target: Neu(a2-3)Gal(b1-4)[Fuc(a1-3)]GlcNAc(b1-3)Gal(b1-4)Glc
# Summary of the method: as §1
# [12] = molecular target: Neu(a2-3)Gal(b1-4)[Fuc(a1-3)]GlcNAc6S(b1-3)Gal(b1-4)Glc
# Summary of the method: as §1
# [13] = molecular target: Neu(a2-3)Gal6S(b1-4)[Fuc(a1-3)]GlcN(b1-3)Gal(b1-4)Glc
# Summary of the method: as §1
# Neu(a2-6)Gal(b1-4)Glc = molecular target: Neu(a2-6)Gal(b1-4)Glc
# Summary of the method: as §1
# [14] = molecular target: Neu4Ac5Ac(a2-3)Gal(b1-4)Glc
# Summary of the method: as §1
# Neu5Ac(a2-3)Gal = molecular target: Neu5Ac(a2-3)Gal
# Summary of the method: as §1
# [15] = molecular target: Neu5Ac(a2-3)Gal(b1-3)GalNAc(b1-4)Gal(b1-4)Glc
# Summary of the method: as §1
# [16] = molecular target: Neu5Ac(a2-3)Gal(b1-3)GalNAc(b1-4)[Neu5Ac(a2-3)]Gal(b1-4)Glc
# Summary of the method: as §1
# [17] = molecular target: Neu5Ac(a2-3)Gal(b1-3)GalNAc(b1-4)[Neu5Ac(a2-8)Neu5Ac(a2-3)]Gal(b1-4)Glc
# Summary of the method: as §1
# [18] = molecular target: Neu5Ac(a2-3)Gal(b1-3)GlcNAc
# Summary of the method: as §1
# [19] = molecular target: Neu5Ac(a2-3)Gal(b1-3)GlcNAc(b1-3)Gal(b1-4)Glc
# Summary of the method: as §1
# [20] = molecular target: Neu5Ac(a2-3)Gal(b1-3)GlcNAc(b1-3)[Fuc(a1-3)[Gal(b1-4)]GlcNAc(b1-6)]Gal(b1-4)Glc
# Summary of the method: as §1
# [21] = molecular target: Neu5Ac(a2-3)Gal(b1-3)[Fuc(a1-4)]GlcNAc
# Summary of the method: as §1
# [22] = molecular target: Neu5Ac(a2-3)Gal(b1-3)[Fuc(a1-4)]GlcNAc(b1-3)Gal(b1-4)Glc
# Summary of the method: as §1
# [23] = molecular target: Neu5Ac(a2-3)Gal(b1-3)[Neu5Ac(a2-6)]GalNAc
# Summary of the method: as §1
# [24] = molecular target: Neu5Ac(a2-3)Gal(b1-3)[Neu5Ac(a2-6)]GlcNAc(b1-3)Gal(b1-4)Glc
# Summary of the method: as §1
# Neu5Ac(a2-3)Gal(b1-4)Glc = molecular target: Neu5Ac(a2-3)Gal(b1-4)Glc
# Summary of the method: as §1
# [25] = molecular target: Neu5Ac(a2-3)Gal(b1-4)GlcNAc
# Summary of the method: as §1
# [26] = molecular target: Neu5Ac(a2-3)Gal(b1-4)GlcNAc(b1-2)Man(a1-3)[Neu5Ac(a2-3)Gal(b1-4)GlcNAc(b1-2)Man(a1-6)]Man(b1-4)GlcNAc(b1-4)[Fuc(a1-6)]GlcNAc
# Summary of the method: as §1
# [27] = molecular target: Neu5Ac(a2-3)Gal(b1-4)GlcNAc(b1-3)Gal(b1-4)Glc
# Summary of the method: as §1
# [28] = molecular target: Neu5Ac(a2-3)Gal(b1-4)GlcNAc6S(b1-3)Gal6S(b1-3)GlcNAc6S
# Summary of the method: as §1
# [29] = molecular target: Neu5Ac(a2-3)Gal(b1-4)[Fuc(a1-3)]GlcNAc
# Summary of the method: as §1
# [30] = molecular target: Neu5Ac(a2-3)Gal(b1-4)[Fuc(a1-3)]GlcNAc(b1-3)Gal
# Summary of the method: as §1
# [31] = molecular target: Neu5Ac(a2-3)Gal(b1-4)[Fuc(a1-3)]GlcNAc(b1-3)Gal(b1-4)Glc
# Summary of the method: as §1
binder,measurement,setting,value
B1,glycan array binding signal (z-score),[1],-0.441
same,glycan array binding signal (z-score),[2],-0.344
same,glycan array binding signal (z-score),[3],-0.063
same,glycan array binding signal (z-score),[4],-0.441
same,glycan array binding signal (z-score),[5],-0.441
same,glycan array binding signal (z-score),[6],-0.441
same,glycan array binding signal (z-score),Gal(b1-4)GlcNAc,-0.441
same,glycan array binding signal (z-score),[7],-0.441
same,glycan array binding signal (z-score),[8],-0.441
same,glycan array binding signal (z-score),Neu(a2-3)Gal(b1-4)Glc,-0.422
same,glycan array binding signal (z-score),[9],-0.241
same,glycan array binding signal (z-score),[10],-0.441
same,glycan array binding signal (z-score),[11],-0.441
same,glycan array binding signal (z-score),[12],-0.428
same,glycan array binding signal (z-score),[13],-0.441
same,glycan array binding signal (z-score),Neu(a2-6)Gal(b1-4)Glc,-0.441
same,glycan array binding signal (z-score),[14],-0.441
same,glycan array binding signal (z-score),Neu5Ac(a2-3)Gal,-0.394
same,glycan array binding signal (z-score),[15],-0.42
same,glycan array binding signal (z-score),[16],0.307
same,glycan array binding signal (z-score),[17],-0.006
same,glycan array binding signal (z-score),[18],0.479
same,glycan array binding signal (z-score),[19],-0.1
same,glycan array binding signal (z-score),[20],-0.205
same,glycan array binding signal (z-score),[21],0.955
same,glycan array binding signal (z-score),[22],-0.105
same,glycan array binding signal (z-score),[23],0.562
same,glycan array binding signal (z-score),[24],-0.055
same,glycan array binding signal (z-score),Neu5Ac(a2-3)Gal(b1-4)Glc,-0.14
same,glycan array binding signal (z-score),[25],0.713
same,glycan array binding signal (z-score),[26],0.098
same,glycan array binding signal (z-score),[27],-0.299
same,glycan array binding signal (z-score),[28],2.07
same,glycan array binding signal (z-score),[29],0.85
same,glycan array binding signal (z-score),[30],-0.426
same,glycan array binding signal (z-score),[31],-0.359

# Source: the supplement of paper PMC8728848
